In all, about 33,000 sequences were measured (“E-score (-0.5 to 0.5)”: median about -0.021, highest 2% from about 0.32 on). This is one part of the list.
These sequences were tested against T1, Zap1 (UniProt P47043) (assay: PBM E-score (8-mer binding enrichment) (E-score (-0.5 to 0.5)); higher = stronger / more preferred TF binding; most listed sequences are background and not binding sites). Details: protein concentration: 200 nM; construct: GST-full length.
T1 sequence: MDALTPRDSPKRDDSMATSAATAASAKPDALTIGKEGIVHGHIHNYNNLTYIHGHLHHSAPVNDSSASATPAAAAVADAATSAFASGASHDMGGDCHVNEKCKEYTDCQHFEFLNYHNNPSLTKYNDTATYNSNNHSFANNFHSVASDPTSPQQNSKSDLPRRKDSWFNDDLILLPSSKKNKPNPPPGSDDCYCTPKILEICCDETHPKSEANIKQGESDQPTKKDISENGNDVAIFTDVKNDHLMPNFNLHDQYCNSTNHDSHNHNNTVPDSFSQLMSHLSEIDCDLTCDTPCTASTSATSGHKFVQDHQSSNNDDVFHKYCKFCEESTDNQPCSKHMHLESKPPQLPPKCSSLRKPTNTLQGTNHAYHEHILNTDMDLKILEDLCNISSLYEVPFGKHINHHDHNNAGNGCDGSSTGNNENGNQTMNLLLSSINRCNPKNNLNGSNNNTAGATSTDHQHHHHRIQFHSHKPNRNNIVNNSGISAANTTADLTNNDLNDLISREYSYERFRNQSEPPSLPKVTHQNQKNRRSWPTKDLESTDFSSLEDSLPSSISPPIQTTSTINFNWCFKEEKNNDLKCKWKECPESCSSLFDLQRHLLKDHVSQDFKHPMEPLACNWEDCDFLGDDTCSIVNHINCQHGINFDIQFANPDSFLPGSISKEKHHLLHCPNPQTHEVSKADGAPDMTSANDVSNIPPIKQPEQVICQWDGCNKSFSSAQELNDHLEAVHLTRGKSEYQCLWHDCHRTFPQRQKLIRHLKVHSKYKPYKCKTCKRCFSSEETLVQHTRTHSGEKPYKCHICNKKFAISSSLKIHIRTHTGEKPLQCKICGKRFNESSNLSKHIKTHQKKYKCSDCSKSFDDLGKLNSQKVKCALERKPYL
Protocol: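 Universal 'all 10-mer' protein binding microarrays (Agilent AMADID 015681) probed with GST-tagged S. cerevisiae TFs (full-length or DBD) made by in vitro transcription/translation (PURExpress), about 100-200 nM. Bound TF was detected with fluorescent anti-GST. Each ungapped 8-mer (which stands for itself and its reverse complement) is scored by the PBM enrichment score (E-score), a modified Wilcoxon-Mann-Whitney statistic from -0.5 to +0.5, computed with the Universal PBM Analysis Suite. Scale: above 0.35 generally sequence-specific binding.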

**Q.** For CCGTAAAA, which “PBM E-score” value is on record?
**A.** The value was 0.271.

**Q.** How did the “PBM E-score” value turn out when GGGTAAAA was run?
**A.** Its value is 0.306.

**Q.** For TCGTCTCA, which “PBM E-score” value is on record?
**A.** Its value is -0.0937.

**Q.** Which “PBM E-score” value does the source give for CAGCAAAA here?
**A.** Its value is 0.0634.

**Q.** How did the “PBM E-score” value turn out when CCCCCGCG was run?
**A.** Its value is -0.11.

**Q.** Which “PBM E-score” value does the source give for GCATTCGA here?
**A.** Its value is -0.15.

**Q.** With CTCTTACC as the sequence, how does the “PBM E-score” value read?
**A.** Its value is 0.16.

**Q.** AAAGCTAC was tested. Which “PBM E-score” value did it give?
**A.** Its value is -0.253.

**Q.** Which “PBM E-score” value does the source give for CACCAACG here?
**A.** Its value is -0.0632.

**Q.** How did the “PBM E-score” value turn out when CTCCTCTA was run?
**A.** Its value is -0.143.

**Q.** For ATCAGACC, which “PBM E-score” value is on record?
**A.** Its value is -0.0972.

**Q.** For GGAAGTCC, which “PBM E-score” value is on record?
**A.** Its value is -0.15.

**Q.** For GATGTAGC, which “PBM E-score” value is on record?
**A.** The value was -0.265.

**Q.** Which “PBM E-score” value does the source give for ATCGCAAC here?
**A.** The value was 0.151.

**Q.** For AATGAGCT, which “PBM E-score” value is on record?
**A.** Its value is -0.165.

**Q.** For AATATGCA, which “PBM E-score” value is on record?
**A.** Its value is -0.114.

**Q.** Which “PBM E-score” value does the source give for AAAGGCTC here?
**A.** Its value is 0.0709.

**Q.** With ACCTCTTA as the sequence, how does the “PBM E-score” value read?
**A.** The value was 0.274.

**Q.** How did the “PBM E-score” value turn out when TCTCACAA was run?
**A.** The value was 0.00609.

**Q.** How did the “PBM E-score” value turn out when CTGATTCA was run?
**A.** Its value is -0.158.

**Q.** CAGTTGGA was tested. Which “PBM E-score” value did it give?
**A.** Its value is -0.004.

**Q.** Which “PBM E-score” value does the source give for ATCAAAAC here?
**A.** The value was 0.132.

**Q.** Which “PBM E-score” value does the source give for CGTCGATA here?
**A.** Its value is -0.091.

**Q.** GACTATCA was tested. Which “PBM E-score” value did it give?
**A.** Its value is -0.0335.

**Q.** With GAAGAGTC as the sequence, how does the “PBM E-score” value read?
**A.** Its value is -0.266.

**Q.** CCCTGATA was tested. Which “PBM E-score” value did it give?
**A.** Its value is -0.0332.

**Q.** ATGTTAAA was tested. Which “PBM E-score” value did it give?
**A.** Its value is 0.0569.

**Q.** With CATTGCCC as the sequence, how does the “PBM E-score” value read?
**A.** The value was -0.156.

**Q.** With ACGGATGG as the sequence, how does the “PBM E-score” value read?
**A.** Its value is -0.0981.

**Q.** Which “PBM E-score” value does the source give for GCCTCATA here?
**A.** The value was -0.143.

**Q.** How did the “PBM E-score” value turn out when ACGAGGGC was run?
**A.** The value was -0.126.

**Q.** Which “PBM E-score” value does the source give for AGGGCGAG here?
**A.** The value was -0.23.

**Q.** AGTAATCC was tested. Which “PBM E-score” value did it give?
**A.** Its value is -0.121.

**Q.** With ACTGGTCG as the sequence, how does the “PBM E-score” value read?
**A.** Its value is -0.123.

**Q.** Which “PBM E-score” value does the source give for GACAGCAA here?
**A.** Its value is -0.0348.

**Q.** With CGGTAAAG as the sequence, how does the “PBM E-score” value read?
**A.** The value was 0.0257.

**Q.** For ACGATCTA, which “PBM E-score” value is on record?
**A.** Its value is -0.0931.

**Q.** CTGGACCC was tested. Which “PBM E-score” value did it give?
**A.** The value was 0.0712.

**Q.** For GATCGCAC, which “PBM E-score” value is on record?
**A.** The value was -0.131.

**Q.** ACTCAAGC was tested. Which “PBM E-score” value did it give?
**A.** Its value is -0.19.

**Q.** How did the “PBM E-score” value turn out when CCACCACC was run?
**A.** The value was 0.183.

**Q.** For AATTGAAT, which “PBM E-score” value is on record?
**A.** The value was -0.00526.

**Q.** Which “PBM E-score” value does the source give for CGTGCACG here?
**A.** Its value is -0.14.

**Q.** CTACCACC was tested. Which “PBM E-score” value did it give?
**A.** Its value is -0.129.

**Q.** GTGACCCA was tested. Which “PBM E-score” value did it give?
**A.** Its value is 0.389.

**Q.** How did the “PBM E-score” value turn out when ATCCGCGG was run?
**A.** Its value is 0.0629.

**Q.** How did the “PBM E-score” value turn out when CGACCACC was run?
**A.** Its value is 0.15.

**Q.** ATAATAGA was tested. Which “PBM E-score” value did it give?
**A.** Its value is 0.0295.

**Q.** Which “PBM E-score” value does the source give for GATGTTTA here?
**A.** The value was -0.0174.

**Q.** How did the “PBM E-score” value turn out when AAGGTCCT was run?
**A.** The value was 0.123.

**Q.** For AGACAGGC, which “PBM E-score” value is on record?
**A.** Its value is -0.153.

**Q.** ATACACGA was tested. Which “PBM E-score” value did it give?
**A.** Its value is 0.0189.

**Q.** For CATACATA, which “PBM E-score” value is on record?
**A.** The value was 0.11.

**Q.** AATCGAGT was tested. Which “PBM E-score” value did it give?
**A.** Its value is -0.0147.

**Q.** AATAACGA was tested. Which “PBM E-score” value did it give?
**A.** The value was -0.036.

**Q.** Which “PBM E-score” value does the source give for CGATACCC here?
**A.** Its value is 0.275.

**Q.** Which “PBM E-score” value does the source give for AGTGTTCG here?
**A.** The value was 0.0328.

**Q.** With ATCTCTAA as the sequence, how does the “PBM E-score” value read?
**A.** Its value is -0.0316.

**Q.** With CCTTACGA as the sequence, how does the “PBM E-score” value read?
**A.** Its value is -0.00084.

**Q.** TCATAACA was tested. Which “PBM E-score” value did it give?
**A.** The value was 0.112.

**Q.** For ATTTATCC, which “PBM E-score” value is on record?
**A.** The value was 0.202.

**Q.** For AGAACCCG, which “PBM E-score” value is on record?
**A.** Its value is 0.223.

**Q.** With TAAAATTA as the sequence, how does the “PBM E-score” value read?
**A.** The value was 0.212.

**Q.** How did the “PBM E-score” value turn out when CACATAGA was run?
**A.** The value was -0.0537.

**Q.** Which “PBM E-score” value does the source give for GGCGTGGA here?
**A.** The value was -0.316.

**Q.** Which “PBM E-score” value does the source give for ACAGATCA here?
**A.** Its value is 0.0477.

**Q.** GAAATTAA was tested. Which “PBM E-score” value did it give?
**A.** Its value is 0.27.

**Q.** CACTCTCA was tested. Which “PBM E-score” value did it give?
**A.** The value was -0.078.

**Q.** How did the “PBM E-score” value turn out when GCATCAGC was run?
**A.** The value was -0.161.

**Q.** How did the “PBM E-score” value turn out when TCCCAAAA was run?
**A.** Its value is 0.17.

**Q.** Which “PBM E-score” value does the source give for TAGCATCA here?
**A.** The value was 0.0756.

**Q.** For AATCTAGC, which “PBM E-score” value is on record?
**A.** Its value is -0.226.

**Q.** Which “PBM E-score” value does the source give for CTCCGTTC here?
**A.** Its value is -0.164.

**Q.** How did the “PBM E-score” value turn out when CACAGACC was run?
**A.** Its value is 0.153.

**Q.** CAAGCAGG was tested. Which “PBM E-score” value did it give?
**A.** The value was 0.02.

**Q.** CGTCTCGC was tested. Which “PBM E-score” value did it give?
**A.** Its value is -0.294.

**Q.** Which “PBM E-score” value does the source give for AGCAACTC here?
**A.** The value was -8e-05.

**Q.** Which “PBM E-score” value does the source give for ACGGCCAA here?
**A.** Its value is -0.0636.

**Q.** For AATCTGAA, which “PBM E-score” value is on record?
**A.** The value was -0.0699.

**Q.** How did the “PBM E-score” value turn out when AAGCAATT was run?
**A.** The value was 0.0249.

**Q.** For AGATGTGA, which “PBM E-score” value is on record?
**A.** The value was -0.0251.

**Q.** With GCATTTTA as the sequence, how does the “PBM E-score” value read?
**A.** The value was 0.183.

**Q.** Which “PBM E-score” value does the source give for TATGAAGA here?
**A.** Its value is 0.0198.

**Q.** CGTGTGAG was tested. Which “PBM E-score” value did it give?
**A.** Its value is -0.0199.

**Q.** How did the “PBM E-score” value turn out when CATCGACC was run?
**A.** Its value is -0.0318.

**Q.** For GAATGATA, which “PBM E-score” value is on record?
**A.** Its value is 0.158.

From the supplement of paper PMC3334620
